According to PubChem BioAssay AID1656 (Sanford-Burnham Center for Chemical Genomics, 2009):
The list shows a part of the results. Further columns of the screen follow, without active or inactive calls. Most of these compounds were active or inconclusive in the main read-out, so they are no random draw.

assay: inhibitors of hepatocyte lipid droplet formation, primary screen, imaging, high-throughput imaging, BODIPY stain (AID 1656); conditions: AML12 mouse hepatocytes, oleate lipid droplets, measured here: cell count, cytotoxicity flag, at 6.5 µM;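 further: cells counted across two imaged fields per well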
In short: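 System: AML12 hepatocytes (mouse). Probe or stimulus: oleic acid at 100 µM to induce lipid droplet formation. Times: overnight treatment with compound plus oleate. Detection: Image-based BODIPY and DAPI two-channel analysis. Evaluation: percent inhibition of filter-corrected integrated lipid droplet intensity per well.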

SMILES | cell count [cells]
CC1(C)CCCN(C(=O)c2ccc3c(c2NCCO)C(=O)c2ccccc2C3=O)C1 | 817
CCC(C)NCCOc1ccc(C(C)(C)c2ccccc2)cc1 (configuration not stated) | 694
CCCOc1ccc(CNC(=O)c2ccc3nc(N4CCOCC4)sc3c2)cc1 | 744
C/C=C/c1ccccc1OCc1ccc(C(=O)O)o1 | 213
Cc1cc(C)n(-c2nc3c(c(=O)[nH]c(=O)n3C)n2CC(O)COc2ccc(Cl)cc2Cl)n1 (configuration not stated) | 833
COc1ccc2c(c1)O[C@@H](c1cccc(C(F)(F)F)c1)[C@H](OC(=O)NCCc1ccc(OC)c(OC)c1)C2=O | 705
c1ccc2c(c1)CCCC2C1=NCCN1 (configuration not stated) | 680
Cc1nc(NC(=O)C2CC2)sc1C(=O)N(C)C | 804
CCOc1ccc(C(C)NC(=O)Cc2ccccc2F)cc1OCC (configuration not stated) | 695
COc1ccc(C(C)=O)cc1CSc1nnc(Nc2ccc(C)cc2C)s1 | 382
CCOc1ccc2c(c1)-c1c(ssc1=S)C(C)(C)N2C(=O)CSC1=NCCS1 | 606
COc1cccc(-n2nc(C#N)c(Cl)cc2=O)c1 | 166
CCCNS(=O)(=O)c1ccc(CCC(=O)Nc2cc(Cl)ccc2Oc2ccccc2)cc1 | 684
CC1=CC(C)(C)N2C(=O)C3(NCCc4c3[nH]c3ccccc43)c3cccc1c32 (configuration not stated) | 702
Cc1nn(-c2ccc([N+](=O)[O-])cc2)c2c1C(c1cccc(Br)c1)N1C(=N2)C(=O)Nc2ccccc21 (configuration not stated) | 612
Cc1ccc(S(=O)(=O)N(C)C)cc1NC(=S)Nc1ccc2cn[nH]c2c1 | 650
COc1nccnc1NS(=O)(=O)c1ccc(NCc2cc(Br)ccc2O)cc1 | 843
N#C/C(=C\c1ccc(-c2ccccc2[N+](=O)[O-])o1)C(=O)Nc1nc(-c2cccs2)cs1 | 686
COc1ccccc1N=Nc1c(C)[nH]n(-c2ccccc2)c1=O | 806
CCOc1ccc(NC(=O)CN(C)C(=O)c2ccc(C)c(S(=O)(=O)N3CCCCC3)c2)cc1OCC | 694
COc1cc(OC)cc(C(=O)N[C@H](C(=O)Nc2nc3ccccc3[nH]2)C(C)C)c1 | 263
CCCCN1C(=O)/C(=C/C=C2\Oc3ccccc3N2CC)SC1=S | 628
COc1ccc(CCNc2nnc(Sc3nnnn3-c3ccccc3)s2)cc1OC | 57
COc1ccc(C2CC(c3cccs3)=NN2C(=O)CSc2nc3ccccc3s2)cc1 (configuration not stated) | 614
Cc1cc(C)c(S(=O)(=O)N2CCOC2CNC(=O)C(=O)NCCc2c[nH]c3ccccc23)c(C)c1 (configuration not stated) | 699

SMILES | cell count [cells]
O=C(Nc1ccccc1)c1ccc(NCC2CCCO2)c(S(=O)(=O)N2CCOCC2)c1 (configuration not stated) | 780
COc1ccc(NC(=O)C(C)Sc2nnc3c4c(nc(-c5ccc(OC)cc5)n23)CC(C)(C)OC4)cc1 (configuration not stated) | 675
O=C(N/N=C/c1ccccc1Cl)c1[nH]c2ccc(Br)cc2c1-c1ccccc1 | 62
Cc1c(C(=O)OCCOC(C)C)[nH]c2c1C(=O)CC(c1ccco1)C2 (configuration not stated) | 146
CCOc1cc2c(cc1OCC)C(c1ccc(OC)cc1)N(c1ccccc1)C(=O)C2 (configuration not stated) | 594
COc1cccc2sc(Nc3nc(-c4cc5ccccc5oc4=O)cs3)nc12 | 175
O=C(CSc1nc2ccccc2o1)Nc1nc(-c2ccccc2)c(-c2ccccc2)s1 | 564
CCOc1ccc(CCNC(=O)CSc2nn(-c3ccc(C)c(Cl)c3)c(=S)s2)cc1OCC | 688
CCN(CC)S(=O)(=O)c1ccc(N2C(=O)CC2(/C=C/c2ccccc2)C(=O)NC2CCCC2)cc1 (configuration not stated) | 610
Cc1c(O)ccc(/C=N/Nc2nc(-c3cccnc3)nc3ccccc23)c1O | 653
COc1ccc(NC(=O)CSc2nc3ccccc3nc2N2CCCC2)cc1 | 739
CCOc1ccccc1NC(=O)CSc1nnc(Cn2c(=O)sc3ccccc32)n1C | 758
CCCCCC(/C=N/Nc1ccc(S(=O)(=O)N2CCOCC2)cc1[N+](=O)[O-])=C\c1ccccc1 | 724
CC1=C(C(=O)NC2CCCc3c2cnn3-c2cccc(C)c2C)OCCO1 (configuration not stated) | 631
COc1ccc(CCNC(=O)c2cc3c(=O)n4ccccc4nc3n(CCCN3CCOCC3)c2=N)cc1OC | 212
O=C1C(NS(=O)(=O)c2ccccc2)=C(N2CCN(c3ccc(F)cc3)CC2)C(=O)c2ccccc21 | 682
CC(C)(C)c1cc(NC(=O)Nc2ccc(Cl)cc2Cl)no1 | 772
CCCc1nc2oc3c(NCCCN(C)C)ncnc3c2c2c1CCCC2 | 57
Cc1[nH]n(-c2ccccc2)c(=O)c1N=Nc1ccccc1 | 660
Cc1cc(C)nc(NCCO)n1 | 710
COC(=O)c1ccc(C)c(NS(=O)(=O)c2ccc(OC)cc2)c1 | 239
CC1CCCN(C(=O)c2ccc3c(c2NCCO)C(=O)c2ccccc2C3=O)C1 (configuration not stated) | 762
CN(C)c1ccc(NC2=C([N+](=O)[O-])CS(=O)(=O)C2)cc1 | 825
COc1ccc(CCNC(=O)[C@H](C)N2C(=O)N3CCc4c([nH]c5ccccc45)[C@@]3(C)C2=O)cc1OC | 822
CCOc1ccc(CCNC(=O)CN2C(=O)NC(CCSC)C2=O)cc1OCC (configuration not stated) | 670

SMILES | cell count [cells]
COc1ccc(NS(=O)(=O)c2ccc(NC(=S)NCC3CCCO3)cc2)cc1 (configuration not stated) | 695
CC1Cc2cc(S(=O)(=O)NCCC(=O)N(C)Cc3ccccc3)ccc2N1C(=O)C1CC1 (configuration not stated) | 740
CN(C)c1ccc(C(=O)c2ccc(N(C)C)c3ccccc23)cc1 | 41
COc1ccc(-c2cc(C(F)(F)F)nc(SCCC(=O)NCc3ccccc3)n2)cc1 | 753
C/C(=N\Nc1ccc(S(=O)(=O)Nc2ccc(Cl)cc2)cc1[N+](=O)[O-])c1ccc(N2CCOCC2)cc1 | 585
CC(=O)OCC(=O)[C@@]1(O)CC[C@H]2[C@@H]3CCC4=CC(=O)CC[C@]4(C)[C@H]3[C@@H](O)C[C@@]21C | 746
O=C(N/N=C/c1cccs1)c1cc(-c2ccncc2)nc2ccccc12 | 169
CCOc1ccc2c(c1)-c1c(ssc1=S)C(C)(C)N2C | 758
Oc1c(N=Nc2ccc(F)cc2)ccc2ccccc12 | 794
O=C1OCC2=C1C(c1ccc(F)cc1)c1cc3c(cc1N2)OCO3 (configuration not stated) | 112
COc1ccc(CC(=O)OCC(=O)N2N=C(c3ccccc3)CC2c2ccc(OC)cc2)cc1 (configuration not stated) | 719
CC(=O)Nc1ccc(/C(C)=N/Nc2nc(Nc3ccccc3)nc(N3CCOCC3)n2)cc1 | 8
CCOc1ccc(C(=O)NCC(=O)NC(C)CCc2ccccc2)cc1OCC (configuration not stated) | 726
COc1ccc(OC)c(/C=C/C(=O)N(C)CC(=O)Nc2ccc(C)cc2)c1 | 643
COc1cc2ncnc(NCc3ccc(Cl)cc3)c2cc1OC | 488
COC(=O)c1ccc(C2=NOC(C)(c3sc(-c4ccc(Cl)cc4)nc3C)C2)cc1 (configuration not stated) | 587
Cc1cccc(NC2=C(NCCO)C(=O)c3ccccc3C2=O)c1 | 713
COc1ncccc1C(=O)NC1CCCc2c1cnn2-c1ccc(C)c(C)c1 (configuration not stated) | 642
CCOC(=O)c1cc(-c2ccc(C)cc2)nc2nc(SC)[nH]c(=O)c12 | 640
CCOc1ccc(CCNC(=O)C2CCN(S(=O)(=O)N3CC(C)CC(C)C3)CC2)cc1OCC (configuration not stated) | 824
CCN(CC)S(=O)(=O)c1ccc(C(=O)NCc2ccc3[nH]c4c(c3c2)CCCC4)cc1 | 711
Cc1cc(C(=O)OC(C)C(=O)Nc2nc(-c3ccccc3)cs2)c(C)o1 (configuration not stated) | 787
COc1ccc(N=C2C(=Nc3ccc(OC)cc3)N(c3ccc(OC)cc3)C(=S)N2C(=O)c2ccc(OC)cc2)cc1 | 736
O=C(CCNC(=O)C1CCN(S(=O)(=O)c2ccccc2)CC1)NCc1ccc(Cl)cc1Cl | 704
Cc1noc(NS(=O)(=O)c2ccc(NC(=O)CC(C)C)cc2)c1C | 250

SMILES | cell count [cells]
CC(C)c1ccc(NC(=O)CSc2nc3ccccc3nc2N2CCCC2)cc1 | 756
Cc1ccc(S(=O)(=O)NNC(=O)C2COc3ccccc3O2)cc1 (configuration not stated) | 287
O=C(Nc1ccc(NS(=O)(=O)c2ccccc2)cc1)c1ccccc1 | 17
CN1/C(=C\C=C(/C#N)C(=O)Nc2ccccc2F)C(C)(C)c2ccccc21 | 195
O=C1C=C(Nc2cccc3cccnc23)c2ccccc2C1=O | 299
Cc1ccc(NC(=O)/C=C/c2ccc([N+](=O)[O-])s2)c(C)c1 | 127
CCOc1ccc(CCNC(=O)Cn2ccc3ccccc3c2=O)cc1OCC | 684
O=C(Cn1nnc(-c2ccc([N+](=O)[O-])cc2)n1)NNC(=O)c1ccccc1 | 763
CCOc1ccc(C(=O)NCCNC(=O)c2ccc(OCC)cc2)cc1 | 849
N#C/C(=C\c1sc(N2CCOCC2)nc1-c1ccccc1)C(=O)Nc1cccc2ccccc12 | 696
C=C(C)Cn1c(N2CCC(Cc3ccccc3)CC2)nc2c1c(=O)[nH]c(=O)n2C | 655
Cc1cc(C)cc(N(CC(=O)O)S(=O)(=O)c2c(C)noc2C)c1 | 836
O=C(Nc1ccccc1F)C(=Cc1sc(N2CCOCC2)nc1-c1ccccc1)C(=O)Nc1ccccc1F | 624
COc1ccc2c(c1)c(CC(=O)Nc1cc(C)ccc1C)c(C)n2C(=O)c1ccc(Cl)cc1 | 647
CCCc1cc(N2CCCC2)n2nc(C)c(-c3ccccc3)c2n1 | 666
CCOC(=O)C(NC(=O)c1cccc(Cl)c1)(OCc1ccc(F)cc1)C(F)(F)F (configuration not stated) | 661
CC(Sc1nc(NCc2ccccc2)nc(N2CCOCC2)n1)C(=O)Nc1ccccc1 (configuration not stated) | 762
CCOc1ccc(C(=O)OCC(=O)Nc2nc(OC)cc(OC)n2)cc1OCC | 676
N#CC(C#N)=c1ccc2c(c1)N1C(c3ccccc3)=CC(c3ccccc3)C3CCCCC31N=2 (configuration not stated) | 643
CCOCCCNc1nc2c(C)cccn2c(=O)c1/C=C1\SC(=S)N(C(C)CC)C1=O (configuration not stated) | 703
CC1=Nc2ccccc2/C1=C\c1sc(Nc2ccc(C)cc2)nc1O | 162
COc1ccc(S(=O)(=O)N2c3cc(Cl)ccc3Oc3nc4ccccc4nc32)cc1 | 128
